# Measured values as given in paper PMC6919601, “Identification of Plasmodium dipeptidyl aminopeptidase allosteric inhibitors by high throughput screening” (PLoS ONE, 2019).
# Several values for one entry are separate records, joined by “and”; a condition that tells them apart may be missing. Identical values can stand only once. Out of some 110,000 compounds screened, about 230 (0.21%) showed an effect of 50% or more. Some of the results follow.
# Molecular target: DPAP1 (Plasmodium falciparum, UniProt Q8IIJ9)
# Test: primary screen, percent inhibition; read by cleavage of a fluorogenic dipeptide substrate; higher = more effect of the substance
# Parameters: species or system P. falciparum D10 trophozoite lysates; single well
# 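Note: 30 min substrate incubation versus DMSO and 10 µM JCP410 controls.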
# Chain of DPAP1 (Q8IIJ9 whole entry, looked up): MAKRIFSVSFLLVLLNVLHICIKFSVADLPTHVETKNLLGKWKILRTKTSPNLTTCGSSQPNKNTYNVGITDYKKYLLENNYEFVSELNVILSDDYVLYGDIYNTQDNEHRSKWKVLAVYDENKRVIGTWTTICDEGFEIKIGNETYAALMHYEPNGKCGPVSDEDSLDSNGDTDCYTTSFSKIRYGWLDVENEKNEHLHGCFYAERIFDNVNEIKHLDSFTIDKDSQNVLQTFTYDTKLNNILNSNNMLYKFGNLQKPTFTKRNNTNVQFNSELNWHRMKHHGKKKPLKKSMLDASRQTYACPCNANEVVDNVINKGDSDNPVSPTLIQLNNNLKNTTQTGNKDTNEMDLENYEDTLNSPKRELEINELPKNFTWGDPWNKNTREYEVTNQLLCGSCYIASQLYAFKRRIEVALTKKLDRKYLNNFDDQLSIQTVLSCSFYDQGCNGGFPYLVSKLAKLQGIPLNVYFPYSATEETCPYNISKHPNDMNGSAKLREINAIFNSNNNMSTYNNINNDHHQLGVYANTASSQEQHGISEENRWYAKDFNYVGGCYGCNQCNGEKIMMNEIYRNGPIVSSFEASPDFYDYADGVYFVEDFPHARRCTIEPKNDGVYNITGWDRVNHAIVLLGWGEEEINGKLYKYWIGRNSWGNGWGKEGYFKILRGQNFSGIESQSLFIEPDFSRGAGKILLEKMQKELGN
row,SMILES,% Inhibition @ 10 uM
1,CCOc1cccc2c1OC(c1cccc(F)c1)N1N=C(c3ccco3)CC21 (stereo not shown),1.88%
2,O=C(CCc1ccccc1)Nc1nc(-c2ccc(F)cc2)cs1,3.53%
3,COc1cc(C(=O)Nc2cc(-c3nc4ncccc4o3)ccc2C)cc(OC)c1OC,5.04%
4,Cc1ccc(OCCCCCCN2CCOCC2)cc1C,-4.01%
5,CCOc1ccc(NC(=O)C(C)NS(=O)(=O)c2cc(C)ccc2C)cc1 (stereo not shown),-2.09%
6,COC(=O)c1cc(/C=C/c2ccccc2)c2c(=O)n(C)c(=O)n(C)c2n1,4.11%
7,Cc1cc(C)c(S(=O)(=O)N2CCc3ccccc32)c(C)c1,-1.62%
8,CC(C)CCNC(=O)c1nc(-c2cccc(F)c2)n2c1CCCCC2,0.0603%
9,COc1cccc(N(CC(=O)Nc2ccccc2F)S(=O)(=O)c2ccc(C)cc2)c1,0.851% and 1.92%
10,Cc1sc2ncn(CC(=O)NCc3ccccn3)c(=O)c2c1C,-3.23%
11,CCCOc1ccc(NC(=O)c2ccco2)cc1,-1.76%
12,CCOC(=O)C1=C(CSc2nc(CC)c(C)cc2C#N)OC(N)=C(C#N)C1c1ccccc1OC (stereo not shown),-1.68%
13,Cc1c(CNCc2ccccc2)c(C(=O)O)c(C)n1Cc1ccc(F)cc1Cl,-0.23%
14,COc1ccc(OC)c(CNC(=O)c2cn(CC(C)C)c(=O)c3c2c2ccccc2n3C)c1,-1.84%
15,O=C(c1cccs1)N(Cc1nc(-c2ccc(Cl)cc2)no1)C1CCCCC1,-4.82%
16,Cc1ccc2c(cnn2C(=O)CCC(=O)O)c1,-9.2%
17,CC1=C(C(=O)OCC(C)C)C(c2ccccc2C(F)(F)F)CC(=O)N1 (stereo not shown),3.11%
18,Cc1nn(CCCC(=O)N(C)Cc2ccccc2)c(=O)c2c1sc1ccccc12,-5.61%
19,O=C1NC(=O)C(=Cc2ccc(N3CCOCC3)cc2)C(=O)N1,-0.0648%
20,Cc1ccccc1Cn1cnc2c(nnn2-c2ccc(F)cc2)c1=O,-2.16%
21,CC(C)C[C@H](NC(=O)c1ccc(-n2ccnc2)cc1)C(=O)NCC#N,-0.778%
22,CCCc1nc(N)c(C#N)c(-c2cccc(Br)c2)c1CC,-6.08%

row,SMILES,% Inhibition @ 10 uM
1,Cc1ccc(OCCCN2CCCC2)cc1C,-0.351%
2,O=C(NCCc1ccc(Cl)cc1)C1CCCN(S(=O)(=O)N2CCOCC2)C1 (stereo not shown),2.54%
3,COc1ccc(C2/C(=C(\O)OC3CCCCC3)C(C)=Nc3ncnn32)cc1Br (stereo not shown),-3.13%
4,Cc1nn(-c2ccccc2)c(-n2cccc2)c1C(=O)N1CCCCCC1,1.8%
5,Cc1ccc(-n2nc(C)c(/C=N/c3ccc(C(=O)O)c(O)c3)c2O)cc1,1.37%
6,CNS(=O)(=O)c1cn(CC(=O)Nc2nc3ccc(Cl)cc3s2)cc1S(=O)(=O)NC,7.85%
7,CCOc1ccc(-c2c(C)nn3c(C)c(C(=O)NC(C)CCc4ccccc4)cnc23)cc1OCC (stereo not shown),-0.477%
8,O=C(CN(C1CCCCC1)S(=O)(=O)c1ccc(Br)cc1)N1CCCCCC1,-7.28%
9,COc1ccc(C2CC(=O)N=C(NC(=O)c3ccc(Cl)cc3)N2)cc1 (stereo not shown),-9.43%
10,NC(=O)c1cc(S(=O)(=O)NCc2ccc3c(c2)OCO3)cs1,3.28%
11,O=C(CSc1nc2ccccc2[nH]1)Nc1ncccn1,6.51%
12,C=CCN1C(=O)c2ccccc2C1(O)c1ccc(Cl)cc1 (stereo not shown),-0.636%
13,CCOC(=O)C1CCN(Cc2ccsc2)CC1,-4.35%
14,Fc1cccc(F)c1CN1CCN(c2ccc(Cl)cc2)CC1,-3.15%
15,O=C(O)c1nsc2ccccc12,-3.78%
16,Cc1c(C(=O)N2CCOCC2)sc(NC(=O)C(C)C)c1C#N,2.38%
17,COc1ccc(-c2csc(N3N=C(c4ccccc4)CC3c3ccccc3)n2)cc1F (stereo not shown),-2.5%
18,O=C1N=C(Nc2cccc3ccccc23)S/C1=C1\C(=O)Nc2ccc(Br)cc21,0.145%
19,Cc1cccc(CCNC(=O)c2cn(C)c(=O)c3c2c2ccccc2n3C)c1,-7.77%
20,CCCNC(=O)NS(=O)(=O)c1cnccc1Sc1ccc(Cl)c(Cl)c1,-2.74%
21,CC(NC(=O)c1sc2nc(-c3cccs3)ccc2c1N)c1ccccc1 (stereo not shown),1.28%
22,O=C(Nc1sc2c(c1C(=O)O)CCCC2)c1ccc(F)cc1,-3.27%

row,SMILES,% Inhibition @ 10 uM
1,COC(=O)c1cc(OC)c(OC)cc1NC(=O)c1ccc(OC)cc1,3.34%
2,O=C(O)C1CC=CCC1C(=O)c1c[nH]c2ccccc12 (stereo not shown),2.62%
3,COc1ccc2nc(NC(=O)CNC(=O)Cn3ccc4ccccc4c3=O)sc2c1,6.58%
4,CCN(CC)CCN(C)Cc1ccc(Cl)c(Cl)c1,-5.9%
5,COc1ccc2[nH]c3c(c2c1)CCNC3=O,-1.86%
6,CC(C)C[C@H](NC(=O)[C@H](CC(C)C)NC(=O)OCc1ccccc1)C(=O)C[N+](=O)[O-],-2.35%
7,Cc1cc(NC(=O)c2sc3nc4c(c(-c5ccc(Cl)cc5)c3c2N)CCCC4)no1,-2.14%
8,O=C(Cc1ccc(Cl)cc1Cl)Nc1ccc(Cl)cn1,3.04%
9,Cc1ccc(Oc2nc3ccccn3c(=O)c2/C=C(\C#N)C(=O)NC2CCS(=O)(=O)C2)cc1 (stereo not shown),-6.23%
10,CCn1c2ccccc2n2nc(C)c(C(C)=O)c12,-3.14%
11,CCC(CC)NC1CCCCC1OC (stereo not shown),-3.74%
12,CC(=O)NC1=NC(=O)/C(=C\c2cccc3ccccc23)S1,-10.2%
13,O=C(NCCCO)c1ccc(Cl)cc1,-0.0369%
14,COc1ccc2c(CNC3CCCC(C)C3C)c(C(=O)O)n(Cc3ccccc3C)c2c1 (stereo not shown),4.14%
15,COc1ccc(C2C(C#N)=C(N)Oc3[nH]nc(-c4ccc(C)cc4)c32)cc1 (stereo not shown),10.6%
16,c1ccc(COc2cc3ccoc3cc2OCc2ccccc2)cc1,-6.99%
17,CCS(=O)(=O)N1CCC(C(=O)NCCN(C)C)CC1,-1.21%
18,CCN(CC)S(=O)(=O)c1ccc2[nH]cc(C(=O)O)c2c1,-2.55%
19,COC(=O)c1ccc(-c2nc(O)c3c(n2)Oc2ccc(F)cc2C3)cc1,5.48%
20,C1CCCN(c2nc3nonc3nc2N2CCCCCC2)CC1,-2.6%
